From the GPR68 mutational scans of Howard et al. (2025)
Scores with a large standard error are left out. Two further conditions of the source, in which the scores hardly spread, are not listed. Read del as a deletion of the residues named and ins as an insertion between two positions. For part of these data: The data file names ogerin without a concentration.

B1: GPR68, Q15743 (parent)
chain: MGNITADNSSMSCTIDHTIHQTLAPVVYVTVLVVGFPANCLSLYFGYLQIKARNELGVYLCNLTVADLFYICSLPFWLQYVLQHDNWSHGDLSCQVCGILLYENIYISVGFLCCISVDRYLAVAHPFRFHQFRTLKAAVGVSVVIWAKELLTSIYFLMHEEVIEDENQHRVCFEHYPIQAWQRAINYYRFLVGFLFPICLLLASYQGILRAVRRSHGTQKSRKDQIQRLVLSTVVIFLACFLPYHVLLLVRSVWEASCDFAKGVFNAYHFSLLLTSFNCVADPVLYCFVSETTHRDLARLRGACLAFLTCSRTGRAREAYPLGAPEASGKSGAQGEEPELLTKLHPAFQTPNSPGSGGFPTGRLA

How the values were obtained:
[1] = variants of: B1; assay: cAMP reporter score (Enrich2 score, wild type = 0); higher = more signal; HEK293T, FACS bins
[2] = variants of: B1; assay: surface expression score (Enrich2 score, wild type = 0); higher = more signal; HEK293T, FACS bins

Row | Variant | cAMP reporter score ([1]; pH 5.5) | cAMP reporter score ([1]; pH 6) | cAMP reporter score ([1]; pH 6, modulator: ogerin) | cAMP reporter score ([1]; pH 6.5, modulator: ogerin) | surface expression score [2]
1 | D165_E166insGS | -1.09 | -1.49 | -1.19 | -0.987 | 0.118
2 | F173_H175del | -1.14 | -0.915 | -1.45 | -1.6 | -1.78
3 | C172del | -1.22 | -0.588 | -1.55 | -1.45 | -1.58
4 | Q168F | 1.64 | – | 0.867 | 0.614 | 0.537
5 | Q168S | 0.446 | 0.534 | 0.813 | – | 0.682
6 | Q168N | 1.09 | – | 0.541 | 0.494 | 0.624
7 | Q168G | -0.34 | – | 0.686 | 2.57 | -0.439
8 | Q168K | -0.73 | -0.956 | -0.836 | -0.544 | -0.692
9 | Q168T | -0.273 | -0.318 | -0.771 | -0.544 | 0.515
10 | Q168C | 0.437 | 0.415 | 0.091 | 0.489 | -1.06
11 | Q168W | -0.155 | -0.398 | -0.95 | -0.144 | 0.118
12 | Q168M | 0.592 | -0.331 | 0.522 | 0.728 | 0.995
13 | Q168A | 0.343 | -0.703 | – | -0.886 | –
14 | Q168E | -0.031 | -1.35 | 0.111 | -1.08 | -0.127
15 | Q168D | -0.811 | -0.739 | -0.835 | -1.26 | 0.01
16 | Q168V | -1.21 | -0.691 | -0.933 | -0.767 | 1.45
17 | Q168L | 0.52 | -0.941 | 0.905 | -0.308 | 0.329
18 | Q168I | -0.996 | -0.803 | -0.863 | -1.47 | 0.074
19 | Q168R | -0.019 | 0.321 | 0.161 | 0.401 | 0.442
20 | Q168H | -1.02 | -0.46 | -0.92 | -0.433 | -1.02
21 | R170_V171insGSG | -0.828 | – | -0.843 | -1.11 | 0.929
22 | F173_E174insGSG | -0.698 | 0.382 | -2.49 | -1.36 | 0.553

Row | Variant | cAMP reporter score ([1]; pH 5.5) | cAMP reporter score ([1]; pH 6) | cAMP reporter score ([1]; pH 6, modulator: ogerin) | cAMP reporter score ([1]; pH 6.5, modulator: ogerin) | surface expression score [2]
23 | E166_Q168del | -2.01 | -0.017 | -1.79 | -0.812 | 1.72
24 | D165del | -0.139 | -1.03 | -0.29 | -0.315 | 0.802
25 | F173del | -1.54 | -1.2 | -1.58 | -0.994 | -1.73
26 | C172_F173del | -2.64 | -0.467 | -1.92 | -0.229 | -2.17
27 | P177_Q179del | -1.46 | – | -1.18 | -1.06 | –
28 | C172_F173insGS | -0.434 | -0.622 | -1.1 | – | -0.058
29 | R170_V171insG | -0.575 | -0.646 | -1.7 | -1.12 | 0.897
30 | Y176_P177insG | -0.421 | -0.544 | -0.688 | -0.425 | -0.426
31 | H169_R170insG | -1.04 | -0.084 | -1.3 | -0.281 | 2.12
32 | E166_N167insGS | 0.057 | -0.099 | -1.04 | -1.52 | 0.98
33 | E164_E166del | -0.903 | -0.297 | -1.26 | -0.795 | 0.725
34 | E164A | 1.87 | 0.027 | 1.59 | 1.24 | 2.4
35 | E164H | 0.786 | -0.17 | 0.579 | 0.564 | 0.928
36 | E164C | 0.616 | -0.728 | -0.382 | -0.371 | -0.953
37 | E164Y | -0.383 | 1.31 | 1.09 | 1.39 | –
38 | E164S | 0.207 | 0.136 | 0.499 | -0.329 | 1.66
39 | E164G | -0.486 | -0.034 | – | – | –
40 | E164R | 0.154 | -0.493 | -0.631 | -0.447 | 0.987
41 | E164K | 0.407 | -0.035 | 0.207 | -0.013 | 0.82
42 | E164P | 1.66 | -0.619 | 2.01 | – | 1.89
43 | E164V | 0.4 | -0.029 | – | 3.15 | –
44 | E164I | 1.48 | – | – | – | –

Row | Variant | cAMP reporter score ([1]; pH 5.5) | cAMP reporter score ([1]; pH 6) | cAMP reporter score ([1]; pH 6, modulator: ogerin) | cAMP reporter score ([1]; pH 6.5, modulator: ogerin) | surface expression score [2]
45 | E164Q | 1.07 | -0.131 | 1.01 | -0.573 | 1.28
46 | E164N | -0.923 | -0.668 | -0.751 | -0.585 | 1.66
47 | E164F | -0.262 | -0.43 | 0.29 | -0.519 | 0.122
48 | E164W | 0.272 | 0.825 | 0.592 | 0.076 | 0.569
49 | E164T | 0.756 | 0.598 | 0.778 | 0.768 | 0.523
50 | E164L | 0.694 | 2.34 | 1.26 | 2.06 | 0.476
51 | E164D | -0.595 | -0.64 | -1.2 | -1.11 | -0.47
52 | C172_E174del | -1.3 | 0.135 | -1.31 | -0.8 | -1.17
53 | R170_V171del | -1.08 | -0.79 | -0.733 | -0.385 | 1.43
54 | P177H | -0.597 | -0.658 | -0.588 | -0.504 | -0.748
55 | P177Q | -0.411 | – | – | -2.11 | –
56 | P177E | -1.76 | -0.624 | -1.23 | -0.169 | -0.901
57 | P177D | -0.934 | -1.64 | -2.02 | -1.09 | -1.38
58 | P177R | -1.21 | -0.097 | -1.62 | -0.82 | -1.03
59 | P177L | -1.17 | -0.483 | -1.24 | -0.835 | -0.762
60 | P177M | -1.72 | -0.82 | -1.16 | -1.48 | -2.01
61 | P177C | -0.72 | -0.98 | – | -1.06 | -2.22
62 | P177A | -1.14 | -1.27 | -0.375 | -0.989 | -1.26
63 | P177F | -1.62 | -1.38 | -0.96 | -1.37 | –
64 | P177W | -1.67 | -1.64 | -1.07 | – | –
65 | P177K | -1.58 | -1.09 | -0.359 | -0.466 | -0.797
